# Measurements published in ChEMBL document CHEMBL5606460, “ASAP - DENV-2 NS2B-NS3 protease fluorescence single point” (2024).
# Values joined by “and” are separate entries in the source; they are usually repeats but may differ in a detail not shown here. Identical values can stand only once. Out of some 2,000 compounds screened, about 110 (5.5%) showed an effect of 50% or more. The list shows a part of the results.
# Target: Genome polyprotein (dengue virus type 2) (UniProt P29990)
# [1] = Thailand/16681/1984, Concentration 25.0 uM, Number of replicates 1.0
smiles,measurement,setting,value
Cc1cc(CO)c2cccc(Cc3ccccc3NC(=O)[C@@H](N)c3ccsc3)c2n1,inhibition,"Thailand/16681/1984, Concentration 49.95 uM, Number of replicates 2.0, Standard deviation 1.804981271502336 %",4.91%
same,inhibition,"Thailand/16681/1984, Concentration 99.9 uM, Number of replicates 2.0, Standard deviation 1.1569323403231935 %",9.24%
Cc1cccc(CN2CCC(c3c[nH]c4cccnc34)CC2)c1,inhibition,"Thailand/16681/1984, Concentration 49.5 uM, Number of replicates 2.0, Standard deviation 4.044098684902046 %",-1.88%
same,inhibition,"Thailand/16681/1984, Concentration 99.01 uM, Number of replicates 2.0, Standard deviation 4.567031493116113 %",-1.06%
same,inhibition,"Thailand/16681/1984, Concentration 198.0 uM, Number of replicates 2.0, Standard deviation 4.96530454444078 %",-1.22%
CN(C)C(=O)N1CCN(C(=O)C2CCN(c3ccc(C=O)cc3)CC2)CC1,inhibition,[1],12.6%
N#Cc1cccc(-c2nc3c(C(=O)Nc4ccc5c(c4)CNC5)cc(Cl)cc3[nH]2)c1,inhibition,"Thailand/16681/1984, Concentration 99.5 uM, Number of replicates 2.0, Standard deviation 0.0717454001083366 %",96.4%
same,inhibition,"Thailand/16681/1984, Concentration 295.6 uM, Number of replicates 2.0, Standard deviation 0.16315483385791593 %",93.6%
CN(CC[C@H](O)c1cccs1)C(=O)C1CCN(c2ccc(C=O)cc2)CC1,inhibition,[1],16.4%
O=Cc1ccc(N2CCC(C(=O)Nc3cc(F)c(Br)c(F)c3)CC2)cc1,inhibition,[1],13.9%
O=Cc1ccc(N2CCC(C(=O)NC3CCN(C(=O)C4CC4)CC3)CC2)cc1,inhibition,[1],8.36%
CN1CCN(C(=O)C2CCN(c3ccc(C=O)cc3)CC2)[C@H](c2ccccc2)C1,inhibition,[1],11.2% and 11.6%
CS(=O)(=O)c1ccc(O)c(NC(=O)C2CCN(c3ccc(C=O)cc3)CC2)c1,inhibition,[1],16%
O=C(NCC1(CO)CC1)[C@]1(c2ccc(F)cc2)CCCNC1,inhibition,"Thailand/16681/1984, Concentration 49.5 uM, Number of replicates 2.0, Standard deviation 0.29342256611647827 %",-0.431%
same,inhibition,"Thailand/16681/1984, Concentration 99.01 uM, Number of replicates 2.0, Standard deviation 0.5301375801593371 %",0.116%
same,inhibition,"Thailand/16681/1984, Concentration 198.0 uM, Number of replicates 2.0, Standard deviation 0.5056857277475296 %",-0.092%
CSCC[C@H](NC(=O)OC(C)(C)C)C(=O)N1CCC[C@H]1C(=O)N1CCNCC1,inhibition,"Thailand/16681/1984, Concentration 49.5 uM, Number of replicates 2.0, Standard deviation 0.18656479510110988 %",-1.01%
same,inhibition,"Thailand/16681/1984, Concentration 99.01 uM, Number of replicates 2.0, Standard deviation 0.6673278690655411 %",-1.03%
same,inhibition,"Thailand/16681/1984, Concentration 198.0 uM, Number of replicates 2.0, Standard deviation 0.6237960118923063 %",-0.61%
Cc1c(Br)cnc(NC(=O)C2CCN(c3ccc(C=O)cc3)CC2)c1[N+](=O)[O-],inhibition,[1],13.3%
O=Cc1ccc(N2CCC(C(=O)N3CCN(c4cccnc4)CC3)CC2)cc1,inhibition,[1],11.7%
COc1cc(Cc2cccc(-c3nnn[nH]3)c2)nc(N2CCNCC2)n1,inhibition,"Thailand/16681/1984, Concentration 49.5 uM, Number of replicates 2.0, Standard deviation 0.6269046159245001 %",-0.291%
same,inhibition,"Thailand/16681/1984, Concentration 99.01 uM, Number of replicates 2.0, Standard deviation 0.6940172344445191 %",0.835%
same,inhibition,"Thailand/16681/1984, Concentration 198.0 uM, Number of replicates 2.0, Standard deviation 1.0254182414604671 %",2.12%
Cc1cc(CO)c2cccc(C[C@H](NC(=O)Cc3cccc(CN)c3)C(=O)O)c2n1,inhibition,"Thailand/16681/1984, Concentration 49.95 uM, Number of replicates 2.0, Standard deviation 1.182306091825904 %",3.43%
same,inhibition,"Thailand/16681/1984, Concentration 99.9 uM, Number of replicates 2.0, Standard deviation 0.8526118635872534 %",11.1%
CC(C)(CO)NC(=O)c1cc(Cl)cc(NC(=O)c2cccc(Cn3ccnc3)c2)c1,inhibition,"Thailand/16681/1984, Concentration 49.5 uM, Number of replicates 2.0, Standard deviation 2.3942027115429654 %",-1.59%
same,inhibition,"Thailand/16681/1984, Concentration 99.01 uM, Number of replicates 2.0, Standard deviation 0.22825569900481307 %",-3.98%
same,inhibition,"Thailand/16681/1984, Concentration 198.0 uM, Number of replicates 2.0, Standard deviation 1.4712561186721034 %",-3.84%
Cc1cc(CO)c2cccc(CC(=O)Nc3cc(O)[nH]n3)c2n1,inhibition,"Thailand/16681/1984, Concentration 49.95 uM, Number of replicates 2.0, Standard deviation 0.30186854167697036 %",9.85%
same,inhibition,"Thailand/16681/1984, Concentration 99.9 uM, Number of replicates 2.0, Standard deviation 0.4943454438060974 %",27.1%
Cc1cc(CO)c2cccc(Cc3ccccc3NC(=O)c3cc(C(F)F)nn3C)c2n1,inhibition,"Thailand/16681/1984, Concentration 49.95 uM, Number of replicates 2.0, Standard deviation 2.025151603382516 %",0.062%
same,inhibition,"Thailand/16681/1984, Concentration 99.9 uM, Number of replicates 2.0, Standard deviation 0.9360702100715556 %",3.72%
Cc1cc(CO)c2cccc(Cc3ccccc3C(=O)Nc3cc(O)[nH]n3)c2n1,inhibition,"Thailand/16681/1984, Concentration 49.95 uM, Number of replicates 2.0, Standard deviation 1.692425920917871 %",31.1%
same,inhibition,"Thailand/16681/1984, Concentration 99.9 uM, Number of replicates 2.0, Standard deviation 2.178235447788754 %",49.1%
Cc1cc(NCCN(C)C)c2ccccc2n1,inhibition,"Thailand/16681/1984, Concentration 99.9 uM, Number of replicates 2.0, Standard deviation 3.6219696743832435 %",-9.59%
O=Cc1ccc(N2CCC(C(=O)N3CCN(CCc4cccs4)CC3)CC2)cc1,inhibition,[1],12.3%
O=Cc1ccc(N2CCC(C(=O)Nc3cccc(F)c3[N+](=O)[O-])CC2)cc1,inhibition,[1],17.1%
